# Source: paper PMC4336329 (PLoS ONE, 2015)
# The whole screen tested about 310,000 compounds, of which about 14,000 (4.5%) showed an effect of 50% or more. Effects have a minus sign here. This is one part of the list.
# Molecular target: human ether-à-go-go-related gene (hERG) potassium channel (human, UniProt Q12809)
# Assay: primary screen, population patch clamp on CHO cells stably expressing hERG
# 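Note: peak tail current of the secondary pulse compared with the same well before compound.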
# human ether-à-go-go-related gene (hERG) potassium channel, sequence (Q12809 whole entry, looked up): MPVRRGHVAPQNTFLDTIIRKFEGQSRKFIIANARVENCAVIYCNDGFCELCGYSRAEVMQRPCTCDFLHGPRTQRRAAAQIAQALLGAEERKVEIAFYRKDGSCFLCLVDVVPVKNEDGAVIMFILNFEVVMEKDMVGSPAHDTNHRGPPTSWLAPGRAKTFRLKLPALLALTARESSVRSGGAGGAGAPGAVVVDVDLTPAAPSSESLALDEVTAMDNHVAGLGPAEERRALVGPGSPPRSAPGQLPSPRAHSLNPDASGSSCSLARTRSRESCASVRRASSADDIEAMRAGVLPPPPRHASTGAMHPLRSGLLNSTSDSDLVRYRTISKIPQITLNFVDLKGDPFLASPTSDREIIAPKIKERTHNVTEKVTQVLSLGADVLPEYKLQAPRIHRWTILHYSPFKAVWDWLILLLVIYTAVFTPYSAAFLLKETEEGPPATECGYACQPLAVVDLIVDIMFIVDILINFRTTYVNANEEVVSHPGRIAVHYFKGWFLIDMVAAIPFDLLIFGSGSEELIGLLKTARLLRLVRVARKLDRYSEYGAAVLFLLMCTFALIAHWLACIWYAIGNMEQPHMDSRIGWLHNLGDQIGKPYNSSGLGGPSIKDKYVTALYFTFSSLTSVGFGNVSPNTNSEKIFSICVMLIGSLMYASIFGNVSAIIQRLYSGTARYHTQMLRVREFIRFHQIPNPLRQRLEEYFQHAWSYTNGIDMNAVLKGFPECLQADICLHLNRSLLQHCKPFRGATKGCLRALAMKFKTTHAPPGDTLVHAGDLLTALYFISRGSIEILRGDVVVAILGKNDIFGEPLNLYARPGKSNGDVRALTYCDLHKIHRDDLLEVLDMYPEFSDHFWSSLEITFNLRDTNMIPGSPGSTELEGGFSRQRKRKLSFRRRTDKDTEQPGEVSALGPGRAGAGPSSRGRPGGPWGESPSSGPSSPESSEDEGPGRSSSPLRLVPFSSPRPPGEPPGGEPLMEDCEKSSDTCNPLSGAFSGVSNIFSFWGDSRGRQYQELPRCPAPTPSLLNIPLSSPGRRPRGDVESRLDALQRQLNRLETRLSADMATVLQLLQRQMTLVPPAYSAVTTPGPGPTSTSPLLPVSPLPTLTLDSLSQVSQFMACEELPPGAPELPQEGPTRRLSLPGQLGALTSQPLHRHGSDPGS
row,SMILES,"hERG current change (%, negative = inhibition) at 10uM [%]"
1,CCN(CC)c1ccc(C(=O)Nc2ccccc2)cc1[N+](=O)[O-],-5.94
2,c1c(CC2CCCC2)nnn1C[C@H]1CC[C@@H]([C@@H]2CC[C@H](Cn3cc(CC4CCCC4)nn3)O2)O1,-57.6
3,CC1CCN(C(=O)CC(NC(=O)c2ccccc2Cl)c2ccccc2)CC1 (stereo not shown),-15.7
4,Cc1ccc(C(=O)NNC(=O)C2CC2)cc1Br,14.3
5,O=C(NCCc1ccccn1)c1ccc(S(=O)(=O)N2CCCCCC2)cc1,-22.6
6,CCOC(=O)c1cnn(Cc2ccc(C)cc2)c1N,10.3
7,CC(C)c1ccc(C(O)c2cnc(C(C)C)n2C)cc1 (stereo not shown),-27.5
8,O=C(CSc1nnc(CNc2ccccc2)o1)N1CCCc2ccccc21,-23.8
9,COc1cccc(OC)c1C(=O)Nc1cccc(NC(=O)c2cccs2)c1,8.11
10,CCCn1nnc(NC(=O)c2ccc(Br)cc2)n1,-8.37
11,CC1CN(C(=O)Nc2ccc3c(c2)OCCO3)CC(C)O1 (stereo not shown),22.5
12,O=C1c2ccncc2C(=O)N1CO,19.7
13,Cc1cccc2cc(CN(Cc3cccs3)Cc3nnnn3Cc3ccccc3)c(=O)[nH]c12,-9.39
14,O=S(=O)(Nc1ccc(-c2cn3c(n2)SCC3)cc1)c1ccccc1F,5.86
15,COc1ccc(N(CC(=O)NCc2ccc3c(c2)OCO3)S(C)(=O)=O)cc1OC,1.12
16,Br.O=C(O)c1ccccc1CSC1=NCCS1,28.3
17,Cn1cc(CNCc2ccccc2OCC(O)CN2CCc3ccccc3C2)cn1 (stereo not shown),-0.11
18,Cc1ccc2c(=O)[nH]c(Cc3ccccc3C(=O)O)nc2c1,26.9
19,CCN(Cc1nc(-c2cccc(C)c2)no1)C(=O)c1ccc2c(c1)OCO2,-25.4
20,O=Cc1c(N2CCSCC2)nc2ccccn2c1=O,-4.22
21,Cc1ccc(/C=N/NC(=O)C(C)Oc2cccc3ccccc23)o1 (stereo not shown),2.95
22,CCC(=O)Nc1ccc(-c2nn3c(C)nnc3s2)cc1C,-7.57

row,SMILES,"hERG current change (%, negative = inhibition) at 10uM [%]"
1,O=S(=O)(c1ccc(Cl)cc1)N1CCNCC1,-4.99
2,Cc1cccc(NC(=O)CSc2nnc(-c3ccc(S(=O)(=O)N4CCOCC4)cc3)n2C)c1,-7.42
3,Cn1cc([N+](=O)[O-])c(C(=O)Nc2ccc3c(C(F)(F)F)cc(=O)oc3c2)n1,15.6
4,CCc1ccc(N2CC(C(=O)OCC(=O)NC3CCS(=O)(=O)C3)CC2=O)cc1 (stereo not shown),16.2
5,N#CC1(c2ccccc2)CCC(=O)N1c1ccccc1 (stereo not shown),12.4
6,COc1ccc(C(=O)Nc2ccc(NC(=O)c3cnccn3)cn2)cc1,1.88
7,COc1cnc(SC)nc1Nc1ccc(C#N)cc1,-66.8
8,CCc1noc(C)c1C(=O)N1CC(C)OC(C)C1 (stereo not shown),10.9
9,CC(C)(C)C1CCC(OC(=O)c2cncc(Br)c2)CC1 (stereo not shown),18.2
10,CC(C)c1ccc(CN(C(=O)C2COc3ccccc3O2)C2CCS(=O)(=O)C2)cc1 (stereo not shown),-11.3
11,CCOc1ccc(OCCOc2ncnc3ccccc23)cc1,1.56
12,COc1ccc(OC)c(NC(=O)COC(=O)c2ccc(S(=O)(=O)N3CCOCC3)cc2)c1,-15.3
13,Cc1cc(=O)oc2cc(OCC(=O)Nc3ccccc3C(N)=O)c(Cl)cc12,18.5
14,S=C(NCc1ccccc1)NCc1ccc2c(c1)OCO2,-33.1
15,Cc1nc(-c2ccc(F)cc2)c(CC(=O)N(C)CC(=O)Nc2ccccc2Br)s1,6.65
16,COc1ccccc1C(=O)N1CCN(Cc2cccnc2)CC1.O=C(O)C(=O)O,19.3
17,Cc1cc(C(=O)N2CCCC(C(=O)c3ccc(Cl)cc3C)C2)no1 (stereo not shown),-28.6
18,O=C(CCCc1ccccc1)c1ccc2c(c1)OCCO2,-5.25
19,Cc1ccc(S(=O)(=O)N2CCCCC2CCNC(=O)C(=O)NC2CC2)cc1 (stereo not shown),-25.7
20,Cc1oc2cc(O)ccc2c(=O)c1-c1cnn(-c2ccccc2)c1,17.2
21,O=C(NCc1ccccc1)C(=O)Nc1nc(-c2ccccc2)cs1,9.13
22,Cc1cc(C(=O)N/N=C/c2ccc(Cl)c([N+](=O)[O-])c2)c(C)n1-c1ccc(F)cc1,-2.41

row,SMILES,"hERG current change (%, negative = inhibition) at 10uM [%]"
1,S=C(c1ccc(-c2ccc(Cl)cc2Cl)o1)N1CCCCC1,9.81
2,O=C(N/N=C/c1ccc2cccc(OCc3ccccc3)c2n1)c1ccc(Cl)cc1,12.1
3,COc1ccc(NC(=O)c2cccc(N3C(=O)C4C5C=CC(C6CC56)C4C3=O)c2)c(OC)c1 (stereo not shown),0.727
4,O=C1N=C(N2CCN(c3ccccc3)CC2)SC1Cc1ccccc1 (stereo not shown),-66.4
5,COc1ccc2nc(NC(=O)CSCc3c(C)noc3C)sc2c1,1.24
6,Cc1ccc(-n2c(N)c(C(=O)Nc3c(C)n(C)n(-c4ccccc4)c3=O)c3nc4ccccc4nc32)cc1,-8.97
7,Cc1ccc(NC(=O)COc2ccccc2C(=O)NCCN(C)C)cc1,20.4
8,CC1(C)CC(NC(=O)C23CCC(C)(C2Br)C3(C)C)CC(C)(C)N1 (stereo not shown),-26.9
9,S=C(Nc1ccc(Cl)c(Cl)c1)N1CCOCC1,-8.76
10,COc1ccc(OCCCC(=O)Nc2ccc3c(c2)OCCO3)cc1,4.98
11,O=C(c1cccc2ccccc12)C1CCCN(C(=O)c2ccc(N3CCOCC3)cc2)C1 (stereo not shown),-16.3
12,CCOC(=O)CNC(=O)C(NC(=O)C1CCC(C)CC1)C(C)CC (stereo not shown),10.6
13,O=C1CC(c2ccccc2)=Nc2ccccc2N1,-4.68
14,O=C(Nc1ccccc1Cl)c1cccc(NC(=O)C2CCCC2)c1,-6
15,Cc1cccc(-c2n[nH]c(=S)n2/N=C/c2cccs2)c1,-14.6
16,COc1ccc(CN2C(=O)c3cccnc3C2Nc2cc(Cl)c(OC)cc2OC)cc1 (stereo not shown),5.43
17,CN(NC1OC(=O)c2ccccc21)c1c([N+](=O)[O-])cc(C(F)(F)F)cc1[N+](=O)[O-] (stereo not shown),9.72
18,COC(=O)c1cc(O)c(OCc2ccccc2)c(O)c1,11.7
19,COc1ccc(OC)c(S(=O)(=O)NCCc2cn3ccsc3n2)c1,5.15
20,CCN1CCN(C(=S)c2ccc(-c3ccccc3)cc2)CC1,-15.4
21,CCOc1ccc(NC(=O)c2ccc3c(c2)N(Cc2ccc(F)cc2)C(=O)CS3=O)cc1 (stereo not shown),-0.556
22,CCC(=O)c1cc2c(C)cc(=O)oc2c(C)c1OC,-4.4

row,SMILES,"hERG current change (%, negative = inhibition) at 10uM [%]"
1,COc1cc(OC)cc(C(=O)OCC(=O)Nc2cccc(C(C)=O)c2)c1,6.57
2,C/C(=N\O)C1(C)N(O)C(C)(C)C(c2ccco2)=[N+]1[O-] (stereo not shown),22.2
3,COCCn1nnnc1C(c1ccccc1OC)N1CCN(c2ccccc2F)CC1.Cl (stereo not shown),-8.5
4,Cc1c(NC(=O)Nc2ccccc2C(F)(F)F)c(=O)n(-c2ccccc2)n1C,17.5
5,Cc1cc(C)c(C)c(S(=O)(=O)N2CCN(C(=O)c3ccc4c(=O)n5c(nc4c3)CCC5)CC2)c1C,-18.1
6,COc1cccc(C(=O)N2CCN(C3CCC(c4ccccc4)CC3)CC2)c1OC.O=C(O)C(=O)O (stereo not shown),-10.1
7,COc1ccc(NC(=O)CNC(c2ccccc2)c2ccccc2)cc1Cl,18.4
8,COc1ccc(Nc2nc3ccc(C)cc3cc2C#N)c(OC)c1,3.83
9,O=C(COc1nncc2ccccc12)Nc1ccc(Br)cc1F,12.3
10,Cc1ccc(C)n1-c1ccc(C(=O)NCc2cccnc2)cc1,-3.13
11,Cc1ccc(C)c(OCCC(=O)N2CCN(S(=O)(=O)c3cc(C)ccc3C)CC2)c1,-0.16
12,CC1=NN(c2ccccc2)C(=O)C1N=Nc1cccc(O)c1 (stereo not shown),14.9
13,Cc1ccsc1/C=N/NC(=O)c1nnn(-c2nonc2N)c1-c1ccc2c(c1)OCO2,3.49
14,CC1CC(C)CN(CCOc2ccccc2-c2ccccc2)C1.O=C(O)C(=O)O (stereo not shown),-68.5
15,CCC(C(=O)N1CCOCC1)n1c(C(=O)OC)cc2occc21 (stereo not shown),7.13
16,Cc1cc(C)n(-c2nc(NCCCN(C)C)c3c4c(sc3n2)COC(C)(C)C4)n1,-14.1
17,CC1Oc2ccccc2N(CC(=O)NCc2ccc3c(c2)OCO3)C1=O (stereo not shown),13.5
18,CCOC(=O)CC(=O)CSc1nc(-c2cccnc2)cc(C)c1C#N,-15.1
19,COC(=O)c1cc(OC)c(OC)cc1NC(=S)N1CCCC1,7.34
20,CCOC(=O)c1c(-c2ccc(Cl)cc2)cn2ccccc12,9.97
21,COc1ccccc1CC(=O)Nc1ccon1,7.85
22,O=C(CCC(=O)N1CCN(Cc2ccc(F)cc2)CC1)Nc1nnc(C(F)(F)F)s1,-26.2
